# Measured values from PMC9911399, “Two distinct binding modes provide the RNA-binding protein RbFox with extraordinary sequence specificity”.
# Where a chain is given by its changes, count along the chain named. Some of the results follow.
# T1: RBFOX1 RRM (Homo sapiens, UniProt Q9NWB1 109-208)
# T1 sequence: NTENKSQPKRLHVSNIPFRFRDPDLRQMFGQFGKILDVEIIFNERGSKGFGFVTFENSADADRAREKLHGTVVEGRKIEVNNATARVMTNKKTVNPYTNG
# B1: GUUGUUG (DNA:RNA)
# RNA: GGGAGACCGGAAUUCAGAUUGUCCGUUGUUGUUAAAUCCCGUCGUAGCCACCA
# DNA 1: CAATCTGAATTCCGGTCTCCC
# DNA 2: TGGTGGCTACGACGGGATT
# B2: CCGCGCU (DNA:RNA)
# RNA: GGGAGACCGGAAUUCAGAUUGUCCCCGCGCUUUAAAUCCCGUCGUAGCCACCA
# DNA 1: CAATCTGAATTCCGGTCTCCC
# DNA 2: TGGTGGCTACGACGGGATT
# B3: GAUUCGU (DNA:RNA)
# RNA: B1 RNA with U26A, G28U, U29C, U30G, G31U
# DNA 1: CAATCTGAATTCCGGTCTCCC
# DNA 2: TGGTGGCTACGACGGGATT
# B4: UGAAUGC (DNA:RNA)
# RNA: B1 RNA with G25U, U26G, U27A, G28A, U30G, G31C
# DNA 1: CAATCTGAATTCCGGTCTCCC
# DNA 2: TGGTGGCTACGACGGGATT
# B5: AGGAGCA (DNA:RNA)
# RNA: B2 RNA with C25A, C26G, C28A, U31A
# DNA 1: CAATCTGAATTCCGGTCTCCC
# DNA 2: TGGTGGCTACGACGGGATT
# B6: ACACGAG (DNA:RNA)
# RNA: B2 RNA with C25A, G27A, C30A, U31G
# DNA 1: CAATCTGAATTCCGGTCTCCC
# DNA 2: TGGTGGCTACGACGGGATT
# B7: AAGGUCC (DNA:RNA)
# RNA: B2 RNA with C25A, C26A, C28G, G29U, U31C
# DNA 1: CAATCTGAATTCCGGTCTCCC
# DNA 2: TGGTGGCTACGACGGGATT
# B8: ACCUUCA (DNA:RNA)
# RNA: B2 RNA with C25A, G27C, C28U, G29U, U31A
# DNA 1: CAATCTGAATTCCGGTCTCCC
# DNA 2: TGGTGGCTACGACGGGATT
# B9: GAUAGGU (DNA:RNA)
# RNA: B2 RNA with C25G, C26A, G27U, C28A, C30G
# DNA 1: CAATCTGAATTCCGGTCTCCC
# DNA 2: TGGTGGCTACGACGGGATT
# B10: UCCGAUU (DNA:RNA)
# RNA: B2 RNA with C25U, G27C, C28G, G29A, C30U
# DNA 1: CAATCTGAATTCCGGTCTCCC
# DNA 2: TGGTGGCTACGACGGGATT
# B11: UGCGGAC (DNA:RNA)
# RNA: B2 RNA with C25U, C26G, G27C, C28G, C30A, U31C
# DNA 1: CAATCTGAATTCCGGTCTCCC
# DNA 2: TGGTGGCTACGACGGGATT
# B12: ACCGUGU (DNA:RNA)
# RNA: B2 RNA with C25A, G27C, C28G, G29U, C30G
# DNA 1: CAATCTGAATTCCGGTCTCCC
# DNA 2: TGGTGGCTACGACGGGATT
# B13: CGUAUAG (DNA:RNA)
# RNA: B1 RNA with G25C, U26G, G28A, U30A
# DNA 1: CAATCTGAATTCCGGTCTCCC
# DNA 2: TGGTGGCTACGACGGGATT
# B14: UCAUCUG (DNA:RNA)
# RNA: B1 RNA with G25U, U26C, U27A, G28U, U29C
# DNA 1: CAATCTGAATTCCGGTCTCCC
# DNA 2: TGGTGGCTACGACGGGATT
# B15: UACCUCC (DNA:RNA)
# RNA: B2 RNA with C25U, C26A, G27C, G29U, U31C
# DNA 1: CAATCTGAATTCCGGTCTCCC
# DNA 2: TGGTGGCTACGACGGGATT
# B16: UACCCCC (DNA:RNA)
# RNA: B2 RNA with C25U, C26A, G27C, G29C, U31C
# DNA 1: CAATCTGAATTCCGGTCTCCC
# DNA 2: TGGTGGCTACGACGGGATT
# B17: AAUCACG (DNA:RNA)
# RNA: B2 RNA with C25A, C26A, G27U, G29A, U31G
# DNA 1: CAATCTGAATTCCGGTCTCCC
# DNA 2: TGGTGGCTACGACGGGATT
# B18: CGCAUUA (DNA:RNA)
# RNA: B1 RNA with G25C, U26G, U27C, G28A, G31A
# DNA 1: CAATCTGAATTCCGGTCTCCC
# DNA 2: TGGTGGCTACGACGGGATT
# B19: UGUGUUU (DNA:RNA)
# RNA: B1 RNA with G25U, U26G, G31U
# DNA 1: CAATCTGAATTCCGGTCTCCC
# DNA 2: TGGTGGCTACGACGGGATT
# B20: ACAAUUA (DNA:RNA)
# RNA: B1 RNA with G25A, U26C, U27A, G28A, G31A
# DNA 1: CAATCTGAATTCCGGTCTCCC
# DNA 2: TGGTGGCTACGACGGGATT
# B21: UACAGAU (DNA:RNA)
# RNA: B2 RNA with C25U, C26A, G27C, C28A, C30A
# DNA 1: CAATCTGAATTCCGGTCTCCC
# DNA 2: TGGTGGCTACGACGGGATT
# B22: UACGGGG (DNA:RNA)
# RNA: B1 RNA with G25U, U26A, U27C, U29G, U30G
# DNA 1: CAATCTGAATTCCGGTCTCCC
# DNA 2: TGGTGGCTACGACGGGATT
# B23: AAUGGCA (DNA:RNA)
# RNA: B2 RNA with C25A, C26A, G27U, C28G, U31A
# DNA 1: CAATCTGAATTCCGGTCTCCC
# DNA 2: TGGTGGCTACGACGGGATT
# B24: CGGUUCA (DNA:RNA)
# RNA: B2 RNA with C26G, C28U, G29U, U31A
# DNA 1: CAATCTGAATTCCGGTCTCCC
# DNA 2: TGGTGGCTACGACGGGATT
# B25: UGUGCUG (DNA:RNA)
# RNA: B1 RNA with G25U, U26G, U29C
# DNA 1: CAATCTGAATTCCGGTCTCCC
# DNA 2: TGGTGGCTACGACGGGATT
# B26: CGAGCGG (DNA:RNA)
# RNA: B1 RNA with G25C, U26G, U27A, U29C, U30G
# DNA 1: CAATCTGAATTCCGGTCTCCC
# DNA 2: TGGTGGCTACGACGGGATT
# B27: CACCGGA (DNA:RNA)
# RNA: B2 RNA with C26A, G27C, C30G, U31A
# DNA 1: CAATCTGAATTCCGGTCTCCC
# DNA 2: TGGTGGCTACGACGGGATT
# B28: UUACGUU (DNA:RNA)
# RNA: B2 RNA with C25U, C26U, G27A, C30U
# DNA 1: CAATCTGAATTCCGGTCTCCC
# DNA 2: TGGTGGCTACGACGGGATT
# B29: UGACGCU (DNA:RNA)
# RNA: B2 RNA with C25U, C26G, G27A
# DNA 1: CAATCTGAATTCCGGTCTCCC
# DNA 2: TGGTGGCTACGACGGGATT
# B30: CGUCGAU (DNA:RNA)
# RNA: B2 RNA with C26G, G27U, C30A
# DNA 1: CAATCTGAATTCCGGTCTCCC
# DNA 2: TGGTGGCTACGACGGGATT
# B31: AUCAACC (DNA:RNA)
# RNA: B2 RNA with C25A, C26U, G27C, C28A, G29A, U31C
# DNA 1: CAATCTGAATTCCGGTCTCCC
# DNA 2: TGGTGGCTACGACGGGATT
# Target: T1, RBFOX1 RRM
# Assay: EMSA; HiTS-Eq, 1 nM pool, 10 min; buffer printed only for the single-RNA assays: 10 mM Tris pH 7.5, 150 mM NaCl, 3.4 mM EDTA, 0.001% NP-40, 30 C
# Conditions: tags: His6 N-terminal (pET28a); label: 5' 32P
# How it was run: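 These values rest on relative association constants, computed from read-count changes of each RNA species versus the control reaction and normalised to the cognate motif. Reads came from free RNA recovered by 8% native PAGE after purified RbFox RRM (wild type or mutant) at increasing concentrations was equilibrated for 10 min in 50 µL with 1 nM of a 5′-radiolabelled pool with 7 randomized nucleotides and DNA-annealed flanks.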
row,Binder,binding signal
1,B1,0.0233 KA relative to UGCAUGU
2,B2,0.0117 KA relative to UGCAUGU
3,B3,0.0162 KA relative to UGCAUGU
4,B4,0.0399 KA relative to UGCAUGU
5,B5,0.0164 KA relative to UGCAUGU
6,B6,0.00452 KA relative to UGCAUGU
7,B7,0.0113 KA relative to UGCAUGU
8,B8,0.00186 KA relative to UGCAUGU
9,B9,0.0129 KA relative to UGCAUGU
10,B10,0.00941 KA relative to UGCAUGU
11,B11,0.0112 KA relative to UGCAUGU
12,B12,0.00728 KA relative to UGCAUGU
13,B13,0.00844 KA relative to UGCAUGU
14,B14,0.00773 KA relative to UGCAUGU
15,B15,0.00373 KA relative to UGCAUGU
16,B16,0.0022 KA relative to UGCAUGU

row,Binder,binding signal
1,B17,0.00439 KA relative to UGCAUGU
2,B18,0.00767 KA relative to UGCAUGU
3,B19,0.0186 KA relative to UGCAUGU
4,B20,0.00191 KA relative to UGCAUGU
5,B21,0.00698 KA relative to UGCAUGU
6,B22,0.00332 KA relative to UGCAUGU
7,B23,0.0117 KA relative to UGCAUGU
8,B24,0.00819 KA relative to UGCAUGU
9,B25,0.0301 KA relative to UGCAUGU
10,B26,0.00885 KA relative to UGCAUGU
11,B27,0.00389 KA relative to UGCAUGU
12,B28,0.0124 KA relative to UGCAUGU
13,B29,0.018 KA relative to UGCAUGU
14,B30,0.00831 KA relative to UGCAUGU
15,B31,0.000243 KA relative to UGCAUGU
